Consider 90 compounds from publication PMC4336329 (PLoS ONE, 2015).

The campaign covered roughly 310,000 compounds. About 14,000 (4.5%) showed an effect of 50% or more. Effects have a minus sign here. This is one part of the list.
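Also: peak tail current of the secondary pulse compared with the same well before compound.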

Chain of human ether-à-go-go-related gene (hERG) potassium channel (Q12809 whole entry, looked up): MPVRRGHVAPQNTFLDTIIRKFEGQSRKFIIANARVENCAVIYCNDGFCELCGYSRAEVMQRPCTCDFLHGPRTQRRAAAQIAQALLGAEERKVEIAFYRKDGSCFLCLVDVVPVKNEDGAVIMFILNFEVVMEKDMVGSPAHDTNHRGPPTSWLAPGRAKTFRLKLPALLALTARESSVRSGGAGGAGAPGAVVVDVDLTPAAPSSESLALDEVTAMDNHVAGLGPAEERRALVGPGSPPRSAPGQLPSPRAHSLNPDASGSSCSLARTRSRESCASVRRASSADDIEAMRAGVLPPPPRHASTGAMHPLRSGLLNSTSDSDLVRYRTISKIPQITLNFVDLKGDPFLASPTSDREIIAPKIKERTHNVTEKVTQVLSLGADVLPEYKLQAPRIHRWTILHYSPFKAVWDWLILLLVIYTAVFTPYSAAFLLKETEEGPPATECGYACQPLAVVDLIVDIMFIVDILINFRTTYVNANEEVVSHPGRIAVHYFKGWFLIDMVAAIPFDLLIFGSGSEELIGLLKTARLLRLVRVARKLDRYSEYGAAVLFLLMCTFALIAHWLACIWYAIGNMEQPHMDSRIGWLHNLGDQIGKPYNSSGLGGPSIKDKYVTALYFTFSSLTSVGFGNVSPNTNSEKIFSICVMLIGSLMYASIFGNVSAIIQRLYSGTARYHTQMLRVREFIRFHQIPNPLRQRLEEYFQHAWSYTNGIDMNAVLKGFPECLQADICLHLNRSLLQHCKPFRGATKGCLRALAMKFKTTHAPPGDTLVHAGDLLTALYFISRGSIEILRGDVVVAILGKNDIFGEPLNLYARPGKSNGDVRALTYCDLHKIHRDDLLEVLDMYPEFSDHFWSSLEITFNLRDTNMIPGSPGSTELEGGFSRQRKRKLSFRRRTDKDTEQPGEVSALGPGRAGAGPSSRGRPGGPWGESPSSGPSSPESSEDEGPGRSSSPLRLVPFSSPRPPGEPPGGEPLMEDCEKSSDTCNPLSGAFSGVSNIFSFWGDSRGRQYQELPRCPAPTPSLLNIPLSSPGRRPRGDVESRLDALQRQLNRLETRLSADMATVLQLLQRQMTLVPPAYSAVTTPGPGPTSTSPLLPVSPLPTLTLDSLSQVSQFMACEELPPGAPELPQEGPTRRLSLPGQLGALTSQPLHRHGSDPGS

The assay has as its target human ether-à-go-go-related gene (hERG) potassium channel (human, UniProt Q12809). Description: primary screen, population patch clamp on CHO cells stably expressing hERG.
For the compound `Cc1ccc(CNc2oc(-c3ccco3)nc2C#N)cc1`, the “hERG current change (%, negative = inhibition) at 10uM” value is on record as -5.42%.
`CCCn1c(=O)c(C(=O)NNC(=O)c2ccccc2Cl)c(O)c2ccccc21`: the “hERG current change (%, negative = inhibition) at 10uM” value is on record as -5.42%.
For the compound `O=S(=O)(Nc1nccs1)c1ccc2c(c1)OCCO2`, the “hERG current change (%, negative = inhibition) at 10uM” value is given as 1.62%.
Next, `CCN(CC)c1ccc2c(Nc3ccccc3)c(C=O)c(=O)oc2c1`: 14.1%.
For the compound `Cc1nnc(Sc2nc3c(c(=O)n(C)c(=O)n3C)n2Cc2ccccc2Cl)s1`, the “hERG current change (%, negative = inhibition) at 10uM” value is on record as -0.861%.
Turning to `CCC(C)NC(=O)c1ccc(C)c(NC(=O)C2=C(C)OCCS2)c1` (stereo not drawn), the “hERG current change (%, negative = inhibition) at 10uM” value is recorded as -12.9%.
Consider `O=C(Nc1ccc(S(=O)(=O)Nc2nccs2)cc1)c1nn(-c2ccc(F)cc2)ccc1=O`, for which the “hERG current change (%, negative = inhibition) at 10uM” value is -11%.
As for `O=C(O)C1CCCCC1C(=O)NCCC(c1ccccc1)c1ccccc1` (stereo not drawn), the “hERG current change (%, negative = inhibition) at 10uM” value is on record as 14.1%.
For `O=[N+]([O-])c1c(Nc2ccc(O)cc2)cc(Cl)c2nonc12`, the “hERG current change (%, negative = inhibition) at 10uM” value is given as -26.1%.
Consider `CCNc1nc(NC(C)(C)C)nc(SC)n1`, for which the “hERG current change (%, negative = inhibition) at 10uM” value is -22.7%.
`CC(C(O)c1ccc(O)cc1)N1CCC(Cc2ccccc2)CC1.O.O=C(O)C(O)C(O)C(=O)O` (stereo not drawn): the “hERG current change (%, negative = inhibition) at 10uM” value is on record as -65.4%.
`Cc1ccc(/C=N/NC(=O)C(C)NC(=O)c2ccccc2)cc1` (stereo not drawn): the “hERG current change (%, negative = inhibition) at 10uM” value stood at 10.2%.
`CCn1c(COc2ccccc2OC)nc2ccccc21`: the “hERG current change (%, negative = inhibition) at 10uM” value came out at 2.28%.
On to `CSCCC(NC(=O)COc1ccccc1)C(=O)N1CCC(C(N)=O)CC1` (stereo not drawn), for which the “hERG current change (%, negative = inhibition) at 10uM” value amounted to 9.8%.
On to `Cc1ccc2c(c1)CCCN2CC(=O)Nc1cc(S(=O)(=O)N2CCCC2)ccc1Cl`, for which the “hERG current change (%, negative = inhibition) at 10uM” value is recorded as -17.3%.
On to `O=C(NCCCO)/C(=C/c1ccco1)NC(=O)c1ccc(Br)o1`, for which the “hERG current change (%, negative = inhibition) at 10uM” value came out at 16.7%.
On to `c1ccc(Nc2ncnc3sc4c(c23)CCC4)cc1`, for which the “hERG current change (%, negative = inhibition) at 10uM” value is listed as 0.132%.
Turning to `O=C(CNC(=O)c1ccccc1C(F)(F)F)N/N=C/c1cccs1`, the “hERG current change (%, negative = inhibition) at 10uM” value is 2.99%.
Regarding `Cc1cccc(NCCC#N)c1`, the “hERG current change (%, negative = inhibition) at 10uM” value came out at 17.3%.
`CCn1c(SCC(=O)Nc2cc(NC(C)=O)ccc2OC)nnc1-c1cccnc1`: the “hERG current change (%, negative = inhibition) at 10uM” value turned out to be 5.99%.
In the case of `O=c1c2c3c(sc2nc2n1CCCS2)CCCC3`, the “hERG current change (%, negative = inhibition) at 10uM” value stood at 3.04%.
With `CC1=CCC(/C=N\Nc2nnc3c(n2)[nH]c2ccccc23)CC1` (stereo not drawn) the figure was -5.57%; with `COc1ccccc1NC(=O)c1cc(C)nc2ccccc12`, 0.683%.
Take `O=C(NCCCn1ccnc1)C(F)(F)C(F)(F)C(=O)NCCCn1ccnc1`: the “hERG current change (%, negative = inhibition) at 10uM” value is 8.19%.
Turning to `C=CCN(Cc1nc(-c2cc(OC)ccc2OC)oc1C)C1CCS(=O)(=O)C1` (stereo not drawn), the “hERG current change (%, negative = inhibition) at 10uM” value was 8.4%.
Take `COc1ccc(C(=O)c2sc(NC(C)C)nc2N)cc1OC`: the “hERG current change (%, negative = inhibition) at 10uM” value is reported as -1.48%.
With `O=C1C2CCCN2C(c2ccc(Cl)cc2)N1c1ccccn1` (stereo not drawn), the “hERG current change (%, negative = inhibition) at 10uM” value is -3.03%.
With `CN(C)S(=O)(=O)c1ccc(-n2cccc2)cc1` the figure was -16.8%; with `C=CCn1c2ccccc2c2nnc(SCC(=O)O)nc21`, 28.6%.
For the compound `CN1CCN(C(=O)C2CCN(S(=O)(=O)c3ccc4c(c3)oc(=O)n4C)CC2)CC1`, the “hERG current change (%, negative = inhibition) at 10uM” value was -8.14%.
Turning to `COc1cccc(N2C(=O)NC(=O)/C(=C\c3cn(C)c4ccccc34)C2=O)c1`, the “hERG current change (%, negative = inhibition) at 10uM” value worked out at 16.2%.
Turning to `Cl.OCCN1CCN(CC/C=C2/c3ccccc3Sc3ccc(C(F)(F)F)cc32)CC1`, the “hERG current change (%, negative = inhibition) at 10uM” value is given as -47.1%.
`CCOC(=O)NC(=O)CSc1ccc(S(=O)(=O)N(C)C2CCCCC2)cn1`: the “hERG current change (%, negative = inhibition) at 10uM” value was -39.3%.
On to `CCOc1ccc(NC(=O)C(=O)NCCCn2ccnc2)cc1`, for which the “hERG current change (%, negative = inhibition) at 10uM” value is recorded as -1.54%.
`Cl.OCCNc1nc(Nc2ccc(Cl)c(Cl)c2)nc2ccccc12`: the “hERG current change (%, negative = inhibition) at 10uM” value is given as 14.5%.
In the case of `CC(=O)NC1=NN(C(C)=O)C(C)(c2ccc(Cl)s2)S1` (stereo not drawn), the “hERG current change (%, negative = inhibition) at 10uM” value is on record as -20.6%.
With `COCC1CCN(Cc2nc(-c3ccc4c(c3)OCO4)no2)C1` (stereo not drawn) the figure was -17.1%.
Take `COc1ccc(CCN2C(=O)C3CC=C(C)CC3C2=O)cc1OC` (stereo not drawn): the “hERG current change (%, negative = inhibition) at 10uM” value is reported as -16.2%.
With `CC1CC(C)(C)NC(=S)N1CCC(=O)N1CCc2ccccc21` (stereo not drawn) the figure was 7.46%; with `COc1cc(NS(=O)(=O)c2ccc(N)cc2)ncn1`, 35.7%; with `CCOc1ccc2oc(C(=O)N(CC)CC(=O)Nc3c(F)cccc3F)c(C)c2c1`, -1.01%.
`COCCN1C(=O)/C(=C/c2cc3c(cc2Br)OCO3)NC1=S`: the “hERG current change (%, negative = inhibition) at 10uM” value is reported as 12.6%.
Turning to `CS(=O)(=O)N1CCC(C(=O)Nc2ccc(F)c(Cl)c2)CC1`, the “hERG current change (%, negative = inhibition) at 10uM” value is listed as 7.17%.
Consider `CC12CCC(C(=O)NCc3ccccc3)(OC1=O)C2(C)C` (stereo not drawn), for which the “hERG current change (%, negative = inhibition) at 10uM” value is -1.62%.
Next, `COc1ccc(N2CCN(C(=O)c3cccc(Cn4cc(Cl)cn4)c3)CC2)cc1`: -48%; `COc1ccc(-n2c(C)cc(=O)[nH]c2=O)cc1`: 24.6%.
Take `CC(=O)C1=C(O)C(=O)N(Cc2ccccc2)C1c1cccc([N+](=O)[O-])c1` (stereo not drawn): the “hERG current change (%, negative = inhibition) at 10uM” value is 12.1%.
For `COc1ccc(S(=O)(=O)N2CCN(C(=O)COc3ccc(C)c(C)c3)CC2)cc1OC`, the “hERG current change (%, negative = inhibition) at 10uM” value was -37.1%.
Next, `CCCCNC(=O)CSc1nc(O)c(Cc2ccc(OC)cc2)c(=O)[nH]1`: 6.28%; `CCOc1ccc(C(=O)NN2C(=S)NC(C)(C)C=C2C)cc1`: 15.1%; `CCOC(=O)c1c(NC(=S)N2CCOCC2)sc(C)c1C`: 15.6%.
On to `Cc1nc2sc3c(c2c(=O)[nH]1)CCC3`, for which the “hERG current change (%, negative = inhibition) at 10uM” value turned out to be 12.1%.
With `Cc1nc(NCCc2ccccc2)c2oc3ccccc3c2n1` the figure was -3.13%; with `COCCn1c(SC)nnc1-c1c[nH]c2ccccc12`, 17.1%.
Consider `O=C(N/C(=C/c1ccco1)C(=O)N1CCOCC1)c1cccs1`, for which the “hERG current change (%, negative = inhibition) at 10uM” value came out at 1.91%.
Next, `CC(C)c1nnc(NC(=O)CCC(=O)N2CCN(c3ccccc3F)CC2)s1`: 7.7%; `CC(C)(C)c1ccc(NC(=O)COc2ccc(-n3ccnc3)cc2)cc1`: -56.5%.
`CCN(CC)c1ccc(C=C(c2nnnn2-c2ccccc2)c2nnnn2-c2ccccc2)cc1`: the “hERG current change (%, negative = inhibition) at 10uM” value is reported as 1.36%.
Take `Cc1ccc2c(c1)Oc1ccc([N+](=O)[O-])cc1C(=O)N2`: the “hERG current change (%, negative = inhibition) at 10uM” value is given as -18.4%.
For the compound `Cc1ccc(S(=O)(=O)Nc2ccc(NC(=O)Nc3cccc(C(F)(F)F)c3)cc2)cc1`, the “hERG current change (%, negative = inhibition) at 10uM” value is on record as 15.4%.
Consider `CCOC(=O)CSc1nc(N)c(C#N)c(-c2cccs2)c1C#N`, for which the “hERG current change (%, negative = inhibition) at 10uM” value was 15.1%.
For the compound `COc1ccc(S(=O)(=O)N2CCN(C3CCCC(C)C3)CC2)cc1.O=C(O)C(=O)O` (stereo not drawn), the “hERG current change (%, negative = inhibition) at 10uM” value is -16.7%.
Next, `O=C(Nc1cc(Cl)cc(Cl)c1)c1coc(=O)c(Br)c1`: -1.63%; `CCOC(=O)CN(C(=O)CNC(=O)c1ccco1)C(C(=O)NC1CCCCC1)c1cccnc1` (stereo not drawn): 12.2%; `O=C1COc2ccc(S(=O)(=O)N3CCC(C(=O)NCc4ccccc4)CC3)cc2N1`: 5.81%.
With `CN(C(=O)CC1C(=O)NCCN1Cc1ccccc1F)C1CCOCC1` (stereo not drawn) the figure was 11.1%; with `Cc1c(C(=O)NNS(=O)(=O)c2ccccc2)sc(=S)n1C`, -2.34%; with `COC(=O)c1ccccc1S(=O)(=O)N1CCC(C(=O)OCc2cccc(OC)c2OC)CC1`, -13.5%.
For the compound `CCc1ccc(OCC(=O)NC(NC(=S)Nc2ccccc2C)C(Cl)(Cl)Cl)cc1` (stereo not drawn), the “hERG current change (%, negative = inhibition) at 10uM” value is given as 0.311%.
Turning to `CC(C)C[C@H](NC(=O)Nc1ccc(S(N)(=O)=O)cc1)C(=O)O`, the “hERG current change (%, negative = inhibition) at 10uM” value was 13%.
For `CCn1cc(-c2n[nH]c(=S)n2-c2ccc(C)cc2Br)c(=O)c2ccc(C)nc21`, the “hERG current change (%, negative = inhibition) at 10uM” value came to 25.4%.
With `CCOc1nc(C)ccc1-c1noc(CC)n1`, the “hERG current change (%, negative = inhibition) at 10uM” value is on record as 15.6%.
Turning to `Cc1cc(C)cc(OCC(=O)OCC(=O)N2CC(=O)Nc3ccccc32)c1`, the “hERG current change (%, negative = inhibition) at 10uM” value is listed as -9.41%.
With `COC(=O)C(Nc1nccs1)(OC)C(F)(F)F` (stereo not drawn) the figure was 5.34%; with `O=C1/C(=C/c2cccs2)CCc2ccccc21`, -11.9%.
For `CC(=O)NS(=O)(=O)c1ccc(NC(=O)c2ccc(-n3nc(C)cc3C)cc2)cc1`, the “hERG current change (%, negative = inhibition) at 10uM” value stood at 3.33%.
For `O=C(Nc1cccc(S(=O)(=O)N2CCCCC2)c1)C1=NN(c2ccccc2)C(=O)CC1`, the “hERG current change (%, negative = inhibition) at 10uM” value is recorded as -36.4%.
Next, `CC(=O)c1c(C)[nH]c(C(=O)NCCc2c[nH]c3ccccc23)c1C`: 12.3%; `O=C(NN=C1CCCC1)c1ccc(O)cc1O`: 6.98%; `O=C(Cc1ccccc1)Nc1ccc(N2CCOCC2)cc1N1CCOCC1`: -0.646%.
With `COc1ccc(Cl)cc1NC(=O)c1[nH]nc(OC)c1[N+](=O)[O-]` the figure was -13.3%.
With `CC(C)(CN1CCc2ccccc2C1)NS(=O)(=O)c1ccccc1` the figure was -1.6%; with `CCOc1ccc2nc(NC(=O)CCC(=O)c3cccs3)sc2c1`, -2.61%; with `COc1cc(/C=C/c2ccc3cccc([N+](=O)[O-])c3n2)ccc1OCC(=O)O`, 15.1%.
`Cc1ncoc1C(=O)N1CCCC(C(=O)c2ccc(-c3ccccc3)cc2)C1` (stereo not drawn): the “hERG current change (%, negative = inhibition) at 10uM” value is listed as -5.8%.
On to `C[N+](C)(C)CC#CCN1CCCC1=O.[I-]`, for which the “hERG current change (%, negative = inhibition) at 10uM” value was determined as 4.02%.
As to `CC(=O)Nc1ccc(S(=O)(=O)N(C)CC(=O)OCC(=O)N(C)c2ccccc2)cc1`, the “hERG current change (%, negative = inhibition) at 10uM” value came out at 22%.
As to `Cc1cc(=O)[nH]c(SCC(=O)Nc2ccc(S(N)(=O)=O)cc2)n1`, the “hERG current change (%, negative = inhibition) at 10uM” value is 6.29%.
On to `CCCCn1c(N)c(N(CCC(C)C)C(=O)COC(=O)c2ccco2)c(=O)[nH]c1=O`, for which the “hERG current change (%, negative = inhibition) at 10uM” value was 17.5%.
Take `Cc1nc(N2CCOCC2)[nH]c(=O)c1CCC(C)C`: the “hERG current change (%, negative = inhibition) at 10uM” value is reported as -6.57%.
